Test results reported in paper PMC10668032.
The other results are listed elsewhere or left out. At the low end of the ranking the order means little.

Molecular target: SIX1-Q177R homeodomain (UniProt Q15475)
Experiment: universal protein binding microarray
Conditions: Universal all-10-mer PBM (8x60K, AMADID 030236), 300 nM GST-tagged protein, Alexa Fluor 488 anti-GST; buffer, salt, pH and temperature not stated; high values mean tight binding; most listed sequences are background and not binding sites; double strand, one strand shown

Sequence | binding signal [E-score]
CCGTATCA | 0.245
TCTTGTCA | 0.0181
AGCTGCGC | -0.135
CAAGATCA | 0.0552
ACCCGTCA | 0.11
AAGAATCA | -0.144
GCGATGGA | -0.137
CCTGAAAA | 0.00726
AATGAATA | -0.0996
CAGGCTGG | -0.0894
AACATGGC | -0.315
ATGGGGTA | 0.222
CTCCACAC | 0.251
CTCAGGGA | -0.0244
AAAGACCT | -0.435
ATATACAG | 0.000785
GTCCCTTA | 0.227
CCAGGACC | 0.0683
CGTCGAGA | -0.0364
AGGGTATA | 0.199
CCTGTAGA | -0.0621
ACTACCTG | -0.00393
CGTGTCAC | 0.462
ACGTTTTC | -0.191
CAACACAG | 0.0708

Sequence | binding signal [E-score]
GTCGGGAA | 0.0283
AGGTTAGG | -0.0229
AGCCGATG | -0.112
ACTCAGCC | -0.248
AGGGTGCA | 0.265
CTTACTTC | -0.124
AACGATAT | -0.203
CCTAGACC | -0.106
ATCGCTCA | -0.135
ACCTAGAA | -0.0478
CGCGCGTA | 0.0597
ACCATGGT | 0.2
CTTCTGAA | -0.107
TGATCCCA | 0.136
ACCAGAGC | -0.0877
AATTCGAG | -0.167
CCTACGAG | -0.0664
CTAGGTGC | 0.0867
CGATTGTA | -0.161
AACCATGC | -0.0021
AACATATA | -0.107
AACTAACG | -0.159
AGGGTTGA | 0.00129
CCGACCTA | -0.0321
TATGGAAA | -0.155

Sequence | binding signal [E-score]
GTGGGGGA | 0.0777
GCCTATAC | -0.218
GCGGGCGA | 0.0236
CATTCATC | -0.175
ACCGTTCC | 0.0464
CTGCATGC | -0.0971
AACTTTAG | -0.304
CAATTCAC | 0.0221
CGCCCCAC | 0.0981
TCGAGCGA | -0.151
GAGTCCCA | -0.147
AGATGTAC | -0.194
ATCGGTCC | -0.187
ACGTAATC | 0.186
AAAGTTGC | -0.257
TGCTACCA | -0.0856
CGATGTGA | -0.000615
AACCTCTT | 0.00894
CTAGAATA | -0.00679
AGATCAGA | -0.158
GAGAACGA | -0.203
GAGTTAAC | 0.171
AAGCTCAA | -0.208
GAGCGCGA | -0.0358
TTAGACAA | -0.0279

Sequence | binding signal [E-score]
TAGCTAAA | -0.169
ACGGAAAT | -0.102
CCAAAAGG | -0.128
CGTATCTA | -0.0685
AAATTCAA | -0.181
AATATTCG | -0.105
CTATGAAA | -0.128
AAAACGAG | -0.115
CGTTGAGA | -0.14
CGAACTTA | -0.137
AGCGATAT | -0.199
TAATGCGA | -0.0147
CATGGACG | -0.199
GTGGCCCA | -0.225
CCTGTCCG | 0.0431
CACGGACG | 0.0717
CGTCTGTC | -0.126
GATTTAAC | -0.0534
AGCGGCCT | -0.0633
CCCGCCCG | 0.233
ACATGCCC | -0.175
ACCAGCCG | -0.0595
CTGCATTC | -0.168
CGCGAGCG | 0.0735
GCCAGCCA | -0.143

Sequence | binding signal [E-score]
TCTGGGAA | -0.231
CAGCGGGA | -0.204
CTAACGCC | 0.0852
ATTAACAG | -0.274
AGGCAACA | 0.0292
GTGTGCTA | 0.321
GCCAACGC | -0.0751
CTTTATCA | -0.162
GATGCCCA | -0.254
GCCTGTTA | -0.0357
GGACAGTA | -0.0361
ACAAATCT | -0.161
ACTACCAA | 0.0147
ATTCACTG | -0.0924
TCTGGTCA | 0.0989
AATCCGTG | 0.17
CTTGGGCA | -0.105
GGGCCGAC | -0.0882
TAATCTGA | -0.0141
AAAAATTA | -0.198
GAAAACTA | -0.108
CATCAGGG | 0.0127
GCCTTCTA | -0.229
AGTTTTGG | 0.0991
CACTGGGA | 0.168

Sequence | binding signal [E-score]
CCTCAAGA | -0.0566
AATAGATG | -0.0918
AAACAGGC | -0.157
AGCACACC | 0.38
AGTTCATA | -0.129
GTTCTTCA | -0.158
AAGACTAC | -0.117
AGGCGATA | -0.1
AACACTCA | 0.4
CTCCTCAA | -0.147
TGCACCCA | 0.153
AAAGGTCG | -0.0879
CTGTTGGA | -0.233
AAAGGTGT | 0.452
GCCAGCGC | -0.181
CATACCAG | -0.104
CCCTGCAA | 0.165
CTTGGCAC | -0.11
ACTACACA | 0.265
ATAAGCAC | 0.166
CTAGCCCC | 0.082
AAGTGTCC | 0.332
CCTAGTTA | 0.0358
CTCCGGTA | 0.161
AGACGGAC | -0.113

Sequence | binding signal [E-score]
AAGGCCTA | -0.111
CCCCACTA | 0.146
CCCAGAGG | 0.017
GCGTGGGA | -0.099
ATTCCGCA | -0.106
CGACATCC | 0.0314
GGGCGGTA | 0.18
ATCATCGA | -0.146
ACCTTGGG | 0.0781
ATCATAAT | -0.0988
TGCGCGCA | 0.22
AGACGTAG | -0.189
AAATTGAA | -0.245
AACGGCCT | -0.233
CTAGACAA | -0.162
AGGATCAG | 0.0228
ATCTTGCA | -0.264
GAGATGTA | 0.195
ACATAATC | -0.0974
GTTTACGA | 0.0291
AAGACAAA | -0.268
AGAAGACA | 0.137
CCACTGCG | -0.0314
AACATCAG | -0.238
TTGGACAA | -0.0574

Sequence | binding signal [E-score]
CGCCTTAC | 0.132
TAGCCAAA | -0.146
GTGCTACA | 0.145
AGCCTACG | -0.175
ATTTAAAT | -0.318
TGCCTAAA | -0.212
GTGCCAGA | 0.0423
CCCTTACC | 0.0345
CTGTTCAA | -0.152
GGCTACGA | 0.196
AATCACCG | -0.229
TCAGACAA | 0.105
AGCATTAA | -0.257
ATTCGATG | -0.144
AGAAGTTC | -0.28
CAAGCAAG | -0.183
ATACTAGG | -0.0228
ACGTGCGG | 0.064
ACCCGACA | 0.325
CCTCAATC | -0.103
CAACTGAG | 0.0563
AAACCTTA | -0.206
ACGGAGGC | -0.0184
ATATAGCA | 0.0197
ACAACCTC | -0.0155

Sequence | binding signal [E-score]
CTCCGGAG | 0.0557
CCTATGAC | -0.1
CGGTGCAG | 0.128
CCATTCGA | -0.132
GTTATTTA | 0.0334
ATCAAAGG | -0.096
ATCGCCAA | -0.208
AGCTAAAT | -0.263
AATACACT | 0.327
CCGGCAGC | -0.0124
GTCTCTTA | -0.181
AACGCCTG | -0.00924
GACGTCGC | -0.115
CATATCGA | 0.0446
CAGTTCGC | -0.311
ACTCGACG | 0.0902
CTTTGCCC | -0.153
GGATGTAC | 0.0663
AAATCGCC | -0.261
ATCTGCTA | -0.105
CACAGGCC | -0.0389
TAGGGGCA | 0.106
AATTGTTC | -0.116
AAGTCTCA | -0.0853
GACCTTAC | -0.0734

Sequence | binding signal [E-score]
ATTTAAAA | -0.198
CTGAAAGA | -0.0958
TCGCGTAA | -0.129
AAGTGATT | -0.192
CACGTGAC | 0.258
GTTCGCTA | -0.0122
CAAAGTTG | -0.121
CGGCAATC | -0.128
GAAGAAAA | -0.0849
CAGTGCGC | -0.0433
AACGGAGC | -0.0838
ACAAATTG | -0.039
AGAAGCAC | -0.0182
GGGGAAAA | -0.28
AGTCGGCA | -0.0374
AACAAACA | 0.0308
GATCCTTA | 0.119
ATCAGCAG | -0.113
AGCATACT | -0.181
TGTTTAAA | 0.114
GAGCTTAC | -0.0995
AAAGAAGG | -0.0232
AATGCATC | -0.233
ATTAACAA | -0.0537
CGTATTTA | -0.116

Sequence | binding signal [E-score]
CGATTGCG | -0.0968
CAGAACCA | -0.265
TAATTATA | -0.0824
ATTATTAG | -0.18
CCAGTATC | 0.0625
AAGTGCGT | -0.0669
CGCGGCTA | -0.109
ACCCCTAG | 0.208
GTACGTAA | -0.0954
CGTTCGAG | 0.0734
CGGTGGTC | -0.0136
CCCTCCAC | -0.0105
CCGGGCAA | -0.0412
ATGACCAT | -0.142
AGGGATCA | 0.246
AATATTTG | -0.0232
AGTGCTTG | 0.0711
CAGTTAGA | -0.228
CCTGGCCA | -0.177
ACGCAGAG | -0.0791
ACAGCTAA | 0.0383
ATCAATTA | -0.00412
CTTGTCTC | -0.158
GTCTCGAA | -0.0405
GTATACTA | 0.13

Sequence | binding signal [E-score]
GACGCAAA | -0.237
CAGGAAGG | -0.0838
AGACACAG | 0.0576
CCTACGCC | 0.0645
GGTCGCAC | -0.101
ACAAGAGT | 0.029
AGTAAAAG | 0.089
GCAGCTTA | -0.138
AAAGCTCG | -0.282
AACGAGAT | -0.266
ACATAACC | -0.151
TGTCCCAA | 0.137
AAGCGATT | -0.16
AACCCCAG | 0.154
CAGCCATA | -0.0267
CTTCGGCA | -0.158
AACCGAAA | -0.118
AAACTCTC | 0.0069
GCAGCGAC | 0.0291
GCAATAAC | -0.0696
ATCGTTCG | -0.0971
CAAGGTAC | -0.0189
TAGATTCA | -0.201
GAGTACGC | 0.055
ATGAAGGG | -0.114

Sequence | binding signal [E-score]
CAGGGAGG | 0.014
CAGACAAG | -0.0533
AACTGACG | -0.239
CCTGACCG | -0.0363
CGTCTCAG | -0.00792
ATCATTAC | -0.0678
GTGAATGA | -0.104
ACGGGGGC | 0.144
CGAGTTAC | 0.0849
ACATGTCC | -0.101
ACGAAAGG | 0.0997
CAGATACC | 0.218
ACCCGAAG | 0.0858
ATGGCACG | -0.0447
CGCCTTTC | -0.193
CCCGACTA | 0.135
CGTCTTTC | -0.392
GACCATAA | -0.183
GGGTCTCA | 0.162
CCAGTCTC | -0.152
ATTTGGGC | -0.235
ACTGATGG | -0.0804
GAGTAGGC | 0.0572
AAATAGTG | 0.108
CCCTCGTC | 0.0131

Sequence | binding signal [E-score]
TGCCCCCA | -0.282
CGGCGTAA | 0.0171
CGTAGCCC | 0.0124
GCGGGGTA | 0.233
CAAACAGC | -0.165
GGTGGTCA | -0.101
CGTACTCC | 0.221
AATCAAGA | -0.0217
CAGGATGG | -0.193
CAATACCG | 0.000605
CACGAAAC | 0.152
ACGTTGGC | -0.238
ATAACGGA | 0.0421
TAACGGAA | -0.17
CAGTTACC | 0.0535
CGTGACAA | 0.0289
CAAAAACA | 0.042
ATCCGTAA | -0.161
ATCATAGC | 0.0699
